Data published in the supplement of paper PMC8285479.
Where a name gives a salt, the structure may show the parent alone. ± gives the standard deviation of the averaged measurements. Over roughly 1,900 compounds, “normalised cell viability (NPI; 0 = phenylarsine oxide control, 1 = DMSO control)” has its median near 1; the lowest 2% begin near 0.039. Some of the results follow.

Test system: NCI-H1944
Assay: normalised cell viability (NPI; 0 = phenylarsine oxide control, 1 = DMSO control) (fraction of DMSO control); NCI-H1944 is a non-small cell lung cancer line; higher = more viable cells (less compound toxicity)
Conditions: 6 days
[1] = glucocorticoid arm: hydrocortisone 2.75 uM co-treatment, compound 1 µM
[2] = glucocorticoid arm: hydrocortisone 2.75 uM co-treatment, compound 5 µM
[3] = glucocorticoid arm: hydrocortisone 2.75 uM pre-treated 2 days and continued, compound 1 µM
[4] = glucocorticoid arm: hydrocortisone 2.75 uM pre-treated 2 days and continued, compound 5 µM
[5] = glucocorticoid arm: vehicle, compound 1 µM
[6] = glucocorticoid arm: vehicle, compound 5 µM
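Note: CTB read-out in 384-well plates, mean of triplicate wells, normalised per plate against 1 µM phenylarsine oxide and 0.1% DMSO, compounds added 24 h after seeding.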

SMILES | normalised cell viability [1] | normalised cell viability [2] | normalised cell viability [3] | normalised cell viability [4] | normalised cell viability [5] | normalised cell viability [6]
COc1cc(Nc2ncc(F)c(Nc3ccc4c(n3)N(COP(=O)(O)O)C(=O)C(C)(C)O4)n2)cc(OC)c1OC | 0.78 ± 0.02 | 0.53 ± 0.025 | 0.845 ± 0.018 | 0.635 ± 0.026 | 0.952 ± 0.026 | 0.632 ± 0.07
COc1cc(Nc2ncc(F)c(Nc3ccc4c(n3)N(COP(=O)(O)O)C(=O)C(C)(C)O4)n2)cc(OC)c1OC [R788 (Fostamatinib)] | 0.745 ± 0.02 | 0.551 ± 0.041 | 0.821 ± 0.019 | 0.642 ± 0.036 | 0.845 ± 0.025 | 0.57 ± 0.035
CN1CC2c3ccccc3Oc3ccc(Cl)cc3C2C1 (stereo not drawn) [Asenapine] | 1.002 ± 0.0072 | 1.02 ± 0.024 | 1.01 ± 0.011 | 1.01 ± 0.028 | 0.995 ± 0.0087 | 1 ± 0.0092
CNC(=O)Nc1ccc(-c2nc(N3CC4CCC(C3)O4)c3cnn(C4CCC5(CC4)OCCO5)c3n2)cc1 | 0.382 ± 0.022 | 0.333 ± 0.0042 | 0.551 ± 0.013 | 0.478 ± 0.095 | 0.239 ± 0.013 | 0.192 ± 0.017
CSc1nc(N)c2ncn([C@@H]3O[C@H](COP(=O)(O)OP(=O)(O)OP(=O)(O)O)[C@H](O)C3O)c2n1 (stereo partly drawn) [2-Methylthioadenosine triphosphate tetrasodium] | 0.9897 ± 0.005 | 0.9943 ± 0.0081 | 0.9963 ± 0.0031 | 0.991 ± 0.0085 | 1 ± 0.019 | 0.9927 ± 0.004
CC(=O)C(C)=O [2,3-Butanedione] | 0.99 ± 0.011 | 0.9887 ± 0.0051 | 0.9867 ± 0.0085 | 1 ± 0.032 | 0.9933 ± 0.0021 | 0.9963 ± 0.0055
COc1cc(C(O)C(=O)O)ccc1O (racemic) [(±)-Vanillylmandelic acid] | 1.02 ± 0.01 | 1.02 ± 0.04 | 1.02 ± 0.011 | 1.01 ± 0.011 | 1.027 ± 0.0058 | 1.02 ± 0.01
Cn1cc(-c2ccc3nnc(C(F)(F)c4ccc5ncccc5c4)n3n2)cn1 | 0.997 ± 0.012 | 1.04 ± 0.011 | 0.99967 ± 0.00058 | 1.04 ± 0.029 | 1.002 ± 0.0068 | 1.01 ± 0.012
CN1[C@@H](CC(=O)c2ccccc2)CCC[C@H]1C[C@H](O)c1ccccc1 [alpha-Lobeline hydrochloride] | 1.003 ± 0.0064 | 0.977 ± 0.021 | 1.006 ± 0.0069 | 1 ± 0.02 | 0.991 ± 0.0044 | 0.997 ± 0.011
CC(=O)OCC1=C(C(=O)O)N2C(=O)[C@@H](NC(=O)CSc3ccncc3)[C@H]2SC1 [Cephapirin sodium salt] | 1.01 ± 0.011 | 1 ± 0.02 | 0.997 ± 0.015 | 0.998 ± 0.0028 | 1.007 ± 0.0058 | 1.01
CCCCCCCCc1ccc(CCC(N)(CO)CO)cc1 [Fingolimod (FTY720) HCl] | 1 ± 0.034 | 0.929 ± 0.078 | 0.984 ± 0.047 | 0.963 ± 0.044 | 0.9973 ± 0.0086 | 0.842 ± 0.13
CCCCCCCC/C=C\CCCCCCCC(=O)NCCc1ccc(O)c(O)c1 [N-Oleoyldopamine] | 0.988 ± 0.011 | 1 ± 0.014 | 1.02 ± 0.05 | 0.982 ± 0.016 | 0.993 ± 0.0044 | 0.9893 ± 0.0063
Nc1ncnc2c1c(-c1cccc(OCc3ccccc3)c1)cn2C1CC(CN2CCC2)C1 (stereo not drawn) | 0.457 ± 0.025 | 0.366 ± 0.021 | 0.596 ± 0.0046 | 0.436 ± 0.062 | 0.939 ± 0.013 | 0.776 ± 0.039
COC(=O)c1c(-c2cc(OC)c(OC)c(OC)c2)c2ccnc(OCc3ncccn3)c2c(=O)n1Cc1ccnc(C)c1 | 0.991 ± 0.0076 | 1.02 ± 0.015 | 1.02 ± 0.011 | 1 ± 0.018 | 0.9917 ± 0.0076 | 0.9933 ± 0.0015
CCOC(=O)C1=C[C@]2(CC)CCCN3CCc4c(n1c1ccccc41)[C@@H]32 [Vinpocetine] | 0.999 ± 0.011 | 1.013 ± 0.0058 | 0.907 ± 0.19 | 1.017 ± 0.0058 | 1.003 ± 0.0061 | 0.994 ± 0.0066
CC1CN(S(=O)(=O)c2cccc3cnccc23)CCN1 (stereo not drawn) | 0.9777 ± 0.0078 | 0.966 ± 0.025 | 0.9933 ± 0.0051 | 1.01 ± 0.091 | 0.9757 ± 0.0074 | 0.9753 ± 0.0076
CC1CNCCN1S(=O)(=O)c1cccc2cnccc12 (stereo not drawn) | 0.994 ± 0.0044 | 0.987 ± 0.022 | 1.013 ± 0.0058 | 1.12 ± 0.084 | 1.003 ± 0.0058 | 0.719 ± 0.19

SMILES | normalised cell viability [1] | normalised cell viability [2] | normalised cell viability [3] | normalised cell viability [4] | normalised cell viability [5] | normalised cell viability [6]
CNCCC(Oc1ccccc1OC)c1ccccc1 (stereo not drawn) [Nisoxetine hydrochloride] | 0.9923 ± 0.0025 | 0.9793 ± 0.0092 | 1.002 ± 0.0072 | 1.05 ± 0.085 | 0.9853 ± 0.0015 | 0.989 ± 0.007
O=NN(CCCl)C(=O)NC1CCCCC1 [Lomustine, CCNU; Lomustine] | 1.01 ± 0.02 | 1.07 ± 0.061 | 1.01 ± 0.01 | 1.04 ± 0.01 | 0.9987 ± 0.0098 | 1 ± 0.0091
CC(C)Cc1ccc(C(C)C(=O)O)cc1 (racemic) [(±)-Ibuprofen] | 0.992 ± 0.012 | 1.02 ± 0.02 | 0.998 ± 0.0035 | 1.04 ± 0.077 | 0.9873 ± 0.0015 | 0.9917 ± 0.0015
O=C1N(c2ccccc2)c2ccccc2C1(Cc1ccncc1)Cc1ccncc1 [Linopirdine] | 0.9967 ± 0.0042 | 1.03 ± 0.03 | 1 ± 0.0084 | 1.06 ± 0.074 | 0.984 ± 0.0053 | 0.9897 ± 0.0095
CCCn1c(=O)c2[nH]c(-c3ccc(S(=O)(=O)O)cc3)nc2n(CCC)c1=O [1,3-Dipropyl-8-p-sulfophenylxanthine] | 0.9873 ± 0.0049 | 0.99 ± 0.01 | 0.994 ± 0.01 | 0.986 ± 0.034 | 0.996 ± 0.016 | 0.996 ± 0.0061
Cc1ccccc1N1C(=O)c2cc(S(N)(=O)=O)c(Cl)cc2NC1C (stereo not drawn) [Metolazone] | – | – | – | 1.02 | – | –
CN(C)CCC(c1ccc(Br)cc1)c1ccccn1 (racemic) [(±)-Brompheniramine maleate] | 1.001 ± 0.0081 | 1.03 ± 0.017 | 1.013 ± 0.0058 | 1.04 ± 0.014 | 1.013 ± 0.0058 | 1.02 ± 0.01
OCCOCCN1CCN(C(c2ccccc2)c2ccc(Cl)cc2)CC1 (stereo not drawn) [Hydroxyzine 2HCl] | 0.9733 ± 0.0051 | 0.957 ± 0.03 | 0.97 ± 0.024 | 0.993 ± 0.024 | 1.003 ± 0.0063 | 0.9973 ± 0.0025
COc1ccc(CNC(=O)Nc2ncc([N+](=O)[O-])s2)cc1 | 1.01 ± 0.016 | 1.04 ± 0.011 | 1.007 ± 0.0058 | 1.02 ± 0.017 | 0.998 ± 0.0035 | 1.01 ± 0.012
Nc1nc(SCc2ccc([N+](=O)[O-])cc2)c2ncn([C@@H]3O[C@H](CO)[C@H](O)C3O)c2n1 (stereo partly drawn) [S-(4-Nitrobenzyl)-6-thioguanosine] | 0.9907 ± 0.0067 | 0.987 ± 0.017 | 0.989 ± 0.018 | 0.976 ± 0.0071 | 0.978 ± 0.014 | 0.9767 ± 0.0051
O=C(c1ccc(Cl)cc1)N1CCN(c2ccc([N+](=O)[O-])c3ncccc23)CC1 | 1.01 ± 0.013 | 1.01 ± 0.027 | 0.992 ± 0.014 | 0.996 ± 0.014 | 0.997 ± 0.015 | 1 ± 0.021
Nc1cccc2c1CN(C1CCC(=O)NC1=O)C2=O (stereo not drawn) [Lenalidomide] | 1.02 ± 0.01 | 1.06 ± 0.032 | 1.02 ± 0.01 | 1.04 ± 0.015 | 0.995 ± 0.0046 | 1.005 ± 0.0092
Nc1cccc2c1CN(C1CCC(=O)NC1=O)C2=O (stereo not drawn) [Lenalidomide (Revlimid)] | 0.997 ± 0.015 | 1.037 ± 0.0058 | 0.998 ± 0.028 | 1.03 ± 0.015 | 1.002 ± 0.0076 | 1.002 ± 0.0068
O=C(Nc1ccc(-c2ccnc(Nc3ccc(N4CCOCC4)cc3)n2)cc1)C1CCCN1 (stereo not drawn) | 0.997 ± 0.018 | 0.966 ± 0.017 | 0.975 ± 0.013 | 0.939 ± 0.024 | 1.002 ± 0.0065 | 1.01 ± 0.011
NOCC(=O)O [O-(Carboxymethyl)hydroxylamine hemihydrochloride] | 0.9827 ± 0.0074 | 0.978 ± 0.02 | 0.99133 ± 0.00058 | 0.966 ± 0.0085 | 0.9807 ± 0.009 | 0.9753 ± 0.0051
CCC[C@H](NC(=O)[C@@H]1[C@H]2CCC[C@H]2CN1C(=O)[C@@H](NC(=O)[C@@H](NC(=O)c1cnccn1)C1CCCCC1)C(C)(C)C)C(=O)C(=O)NC1CC1 [Telaprevir (VX-950)] | 0.981 ± 0.014 | 1.02 ± 0.02 | 0.994 ± 0.018 | 1.017 ± 0.0058 | 0.986 ± 0.012 | 1.004 ± 0.0098
